No constants are given. Whether binding was seen depends on the method and setting. Binding seen in cells or lysates may run through a third protein. Some binding calls cover weakened binding; strength is not graded here. Sequences can lack the tags named with a protein.
Assays:
Assay in all cases: pull-down; pre-60S particles isolated via affinity-tagged assembly factors from yeast strains expressing Dbp7-GFP; Dbp7-GFP detected in the particles (Supplementary Fig. 1c)
[1] = target: T1, affinity-tagged Ssf1 (S. cerevisiae) (UniProt P38789)
T1 sequence: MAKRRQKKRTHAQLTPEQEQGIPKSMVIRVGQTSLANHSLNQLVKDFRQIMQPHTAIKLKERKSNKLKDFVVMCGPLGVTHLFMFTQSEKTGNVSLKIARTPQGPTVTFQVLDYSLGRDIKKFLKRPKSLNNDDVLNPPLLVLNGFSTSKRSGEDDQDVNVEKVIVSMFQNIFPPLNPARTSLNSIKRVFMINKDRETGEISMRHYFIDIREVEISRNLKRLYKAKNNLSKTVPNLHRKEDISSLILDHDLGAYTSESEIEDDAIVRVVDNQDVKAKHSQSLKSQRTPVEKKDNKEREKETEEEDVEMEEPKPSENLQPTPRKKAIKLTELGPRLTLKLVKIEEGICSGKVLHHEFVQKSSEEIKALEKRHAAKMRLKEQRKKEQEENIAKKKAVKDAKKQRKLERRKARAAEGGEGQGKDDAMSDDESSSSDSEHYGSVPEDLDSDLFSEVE

Chains of the proteins cited; added tags and fusions are not shown.
UniProt P34241: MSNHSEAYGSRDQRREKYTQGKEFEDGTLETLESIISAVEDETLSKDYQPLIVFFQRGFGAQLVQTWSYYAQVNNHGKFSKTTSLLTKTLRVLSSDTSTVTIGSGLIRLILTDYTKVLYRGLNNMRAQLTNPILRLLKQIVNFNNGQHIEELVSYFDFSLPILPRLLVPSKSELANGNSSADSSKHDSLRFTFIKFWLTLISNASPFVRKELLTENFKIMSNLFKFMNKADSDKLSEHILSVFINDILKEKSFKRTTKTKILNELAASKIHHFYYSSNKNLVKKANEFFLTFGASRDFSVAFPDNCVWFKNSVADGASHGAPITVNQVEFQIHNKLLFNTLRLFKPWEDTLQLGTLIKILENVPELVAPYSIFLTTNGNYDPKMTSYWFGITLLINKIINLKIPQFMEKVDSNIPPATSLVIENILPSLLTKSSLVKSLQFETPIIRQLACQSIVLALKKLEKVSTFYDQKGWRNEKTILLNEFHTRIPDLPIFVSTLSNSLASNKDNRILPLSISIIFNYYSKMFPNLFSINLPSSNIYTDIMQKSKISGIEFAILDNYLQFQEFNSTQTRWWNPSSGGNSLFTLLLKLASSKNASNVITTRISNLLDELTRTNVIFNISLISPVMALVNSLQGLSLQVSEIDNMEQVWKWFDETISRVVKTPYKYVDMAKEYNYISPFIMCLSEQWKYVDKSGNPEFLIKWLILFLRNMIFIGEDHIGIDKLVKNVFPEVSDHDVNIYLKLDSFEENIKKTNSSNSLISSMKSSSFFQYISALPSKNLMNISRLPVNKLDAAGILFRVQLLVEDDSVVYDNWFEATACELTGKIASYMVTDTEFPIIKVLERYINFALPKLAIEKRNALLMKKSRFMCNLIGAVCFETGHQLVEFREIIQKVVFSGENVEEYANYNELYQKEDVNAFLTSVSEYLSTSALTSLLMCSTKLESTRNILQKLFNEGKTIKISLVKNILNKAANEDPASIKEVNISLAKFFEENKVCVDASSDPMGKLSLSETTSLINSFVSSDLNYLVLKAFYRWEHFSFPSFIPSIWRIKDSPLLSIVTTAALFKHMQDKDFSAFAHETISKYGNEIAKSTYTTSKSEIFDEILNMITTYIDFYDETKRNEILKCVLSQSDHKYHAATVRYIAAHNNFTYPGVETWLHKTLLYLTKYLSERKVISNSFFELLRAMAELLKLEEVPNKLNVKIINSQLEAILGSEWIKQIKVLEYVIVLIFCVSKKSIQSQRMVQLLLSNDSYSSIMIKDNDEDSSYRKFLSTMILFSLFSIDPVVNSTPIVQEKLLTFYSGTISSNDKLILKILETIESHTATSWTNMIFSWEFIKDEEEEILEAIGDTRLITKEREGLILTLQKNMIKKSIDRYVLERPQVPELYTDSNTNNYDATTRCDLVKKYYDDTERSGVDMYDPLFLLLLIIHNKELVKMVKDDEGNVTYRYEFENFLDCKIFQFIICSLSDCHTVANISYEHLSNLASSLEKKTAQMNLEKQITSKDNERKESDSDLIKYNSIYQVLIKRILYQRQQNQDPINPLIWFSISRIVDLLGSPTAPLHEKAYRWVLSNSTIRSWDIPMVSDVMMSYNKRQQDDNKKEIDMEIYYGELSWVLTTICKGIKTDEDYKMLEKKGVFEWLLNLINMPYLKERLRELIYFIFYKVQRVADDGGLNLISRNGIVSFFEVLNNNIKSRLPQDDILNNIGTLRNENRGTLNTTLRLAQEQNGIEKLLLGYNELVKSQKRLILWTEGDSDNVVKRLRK

[2] = target: T2, affinity-tagged Npa2 (S. cerevisiae) (UniProt P47108)
T2 sequence: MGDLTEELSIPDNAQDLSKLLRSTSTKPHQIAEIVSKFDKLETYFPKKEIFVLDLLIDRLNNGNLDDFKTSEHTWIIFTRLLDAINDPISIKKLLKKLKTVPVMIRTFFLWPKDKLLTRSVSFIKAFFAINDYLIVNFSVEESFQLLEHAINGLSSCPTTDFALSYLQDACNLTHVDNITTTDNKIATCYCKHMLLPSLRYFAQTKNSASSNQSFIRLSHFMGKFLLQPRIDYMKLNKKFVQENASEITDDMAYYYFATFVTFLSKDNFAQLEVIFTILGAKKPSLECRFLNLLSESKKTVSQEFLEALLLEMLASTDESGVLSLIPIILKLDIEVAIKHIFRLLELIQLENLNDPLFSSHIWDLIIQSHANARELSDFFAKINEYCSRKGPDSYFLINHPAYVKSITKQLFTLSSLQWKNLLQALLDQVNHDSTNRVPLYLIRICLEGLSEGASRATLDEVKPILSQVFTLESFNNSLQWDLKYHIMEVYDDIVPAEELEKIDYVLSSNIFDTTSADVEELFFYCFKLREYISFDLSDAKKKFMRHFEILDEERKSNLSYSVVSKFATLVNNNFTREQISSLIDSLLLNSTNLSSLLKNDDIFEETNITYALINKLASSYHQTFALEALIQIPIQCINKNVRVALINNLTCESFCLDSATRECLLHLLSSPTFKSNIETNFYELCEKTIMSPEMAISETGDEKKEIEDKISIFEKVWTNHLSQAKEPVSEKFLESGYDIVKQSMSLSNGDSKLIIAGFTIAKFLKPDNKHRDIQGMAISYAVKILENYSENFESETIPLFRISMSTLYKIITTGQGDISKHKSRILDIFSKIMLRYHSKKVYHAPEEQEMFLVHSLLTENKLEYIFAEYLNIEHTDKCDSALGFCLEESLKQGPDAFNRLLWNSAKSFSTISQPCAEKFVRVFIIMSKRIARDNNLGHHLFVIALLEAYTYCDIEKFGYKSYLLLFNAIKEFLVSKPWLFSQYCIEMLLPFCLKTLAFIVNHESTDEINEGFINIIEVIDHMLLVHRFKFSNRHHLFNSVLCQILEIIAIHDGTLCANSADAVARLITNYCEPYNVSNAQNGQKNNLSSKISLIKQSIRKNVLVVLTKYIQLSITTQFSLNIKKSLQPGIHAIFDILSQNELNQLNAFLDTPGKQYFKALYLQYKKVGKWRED

[3] = target: affinity-tagged Npa1 (S. cerevisiae) (UniProt P34241)
[4] = target: T3, affinity-tagged Erb1 (S. cerevisiae) (UniProt Q04660)
T3 sequence: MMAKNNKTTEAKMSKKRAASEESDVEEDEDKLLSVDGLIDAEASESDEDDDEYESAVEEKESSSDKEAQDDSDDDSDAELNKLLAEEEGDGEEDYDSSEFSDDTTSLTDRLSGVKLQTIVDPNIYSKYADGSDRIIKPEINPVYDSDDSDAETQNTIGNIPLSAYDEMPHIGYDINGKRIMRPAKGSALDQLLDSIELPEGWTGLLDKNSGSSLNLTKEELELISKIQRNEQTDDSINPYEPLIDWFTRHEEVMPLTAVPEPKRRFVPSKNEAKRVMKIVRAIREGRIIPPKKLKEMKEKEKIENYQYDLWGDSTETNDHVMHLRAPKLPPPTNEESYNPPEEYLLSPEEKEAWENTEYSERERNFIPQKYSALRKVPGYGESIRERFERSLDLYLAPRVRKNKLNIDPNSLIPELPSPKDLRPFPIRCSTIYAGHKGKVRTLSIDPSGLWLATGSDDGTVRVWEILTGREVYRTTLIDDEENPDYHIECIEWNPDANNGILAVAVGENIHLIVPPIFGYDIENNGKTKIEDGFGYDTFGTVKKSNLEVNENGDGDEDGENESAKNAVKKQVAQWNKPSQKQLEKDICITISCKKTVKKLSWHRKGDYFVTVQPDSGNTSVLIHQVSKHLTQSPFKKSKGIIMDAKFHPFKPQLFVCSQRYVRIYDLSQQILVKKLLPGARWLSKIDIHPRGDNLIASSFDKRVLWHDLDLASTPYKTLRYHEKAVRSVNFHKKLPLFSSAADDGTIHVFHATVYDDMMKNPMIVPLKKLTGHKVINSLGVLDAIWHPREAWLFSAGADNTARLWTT

- binding [1]: binds
- binding [2]: binds
- binding [3]: binds
- binding [4]: binds
B1: Dbp7-GFP (enzyme, UniProt P36120 1-742)
chain: MSDEDSMLLNFTTNEDTAGSSYKQAAKVTGGRWKDRRRMKMKLEGKTVSRKRKANTTGDEGIIPGRGENSIKKLHKESSYSSEEQEKYKGRNAHNTQGRTLPADSQFVSSLFTSNREITTAVNTNIHDENVAINPSNAPLKGDQFASLGVSSLLVSHLEQKMRIKKPTSIQKQAIPQIIGNAGKNDFFIHAQTGSGKTLSYLLPIISTILNMDTHVDRTSGAFALVIAPTRELASQIYHVCSTLVSCCHYLVPCLLIGGERKKSEKARLRKGCNFIIGTPGRVLDHLQNTKVIKEQLSQSLRYIVLDEGDKLMELGFDETISEIIKIVHDIPINSEKFPKLPHKLVHMLCSATLTDGVNRLRNVALKDYKLISNGTKKDSDIVTVAPDQLLQRITIVPPKLRLVTLAATLNNITKDFIASGQQSKTLRTIVFVSCSDSVEFHYDAFSGSDGHHKNLTGDSVRLLTKGNTMFPCFSDSRDPDVVIYKLHGSLSQQMRTSTLQHFARDNEATKGKHLIMFCTDVASRGLDLPHVGSVIELDPPFAVEDHLHRVGRTARAGEKGESLLFLLPGEEEKYMDYIQPYHPMGWELLKFDKEILMPAFKDVNVNRNDKFIRKDEKSSKNKDVGDKEYEWDTNATTWHLNIERRVVGDSAFKNLAVKGFISHVRAYATHISQEKKFFNVKFLHLGHLAKSFGLRERPKAMGLQSSKDGNSEKKPTKENSKNKMFRMARMAEKQIASEFNY
